# Hit rate of the full screen: of about 360,000 compounds, about 16,000 (4.4%) were called active. Inconclusive means that the source gave no clear call. Such entries were picked first, then a sample of the others. Calls come from the whole dose curve; as a rule, active = well fitted inhibition curve with a large enough effect; inconclusive = small, poorly fitted or top-dose-only effect; inactive = no such curve, though single readings can be large or run the other way. Potencies of inconclusive entries are doubtful fits and often do not repeat.
# Biological target: Bromodomain adjacent to zinc finger domain protein 2B (Homo sapiens) (UniProt Q9UIF8)
# Chain of UniProt Q9UIF8 (Q9UIF8 whole entry, looked up, the tested form may be a part): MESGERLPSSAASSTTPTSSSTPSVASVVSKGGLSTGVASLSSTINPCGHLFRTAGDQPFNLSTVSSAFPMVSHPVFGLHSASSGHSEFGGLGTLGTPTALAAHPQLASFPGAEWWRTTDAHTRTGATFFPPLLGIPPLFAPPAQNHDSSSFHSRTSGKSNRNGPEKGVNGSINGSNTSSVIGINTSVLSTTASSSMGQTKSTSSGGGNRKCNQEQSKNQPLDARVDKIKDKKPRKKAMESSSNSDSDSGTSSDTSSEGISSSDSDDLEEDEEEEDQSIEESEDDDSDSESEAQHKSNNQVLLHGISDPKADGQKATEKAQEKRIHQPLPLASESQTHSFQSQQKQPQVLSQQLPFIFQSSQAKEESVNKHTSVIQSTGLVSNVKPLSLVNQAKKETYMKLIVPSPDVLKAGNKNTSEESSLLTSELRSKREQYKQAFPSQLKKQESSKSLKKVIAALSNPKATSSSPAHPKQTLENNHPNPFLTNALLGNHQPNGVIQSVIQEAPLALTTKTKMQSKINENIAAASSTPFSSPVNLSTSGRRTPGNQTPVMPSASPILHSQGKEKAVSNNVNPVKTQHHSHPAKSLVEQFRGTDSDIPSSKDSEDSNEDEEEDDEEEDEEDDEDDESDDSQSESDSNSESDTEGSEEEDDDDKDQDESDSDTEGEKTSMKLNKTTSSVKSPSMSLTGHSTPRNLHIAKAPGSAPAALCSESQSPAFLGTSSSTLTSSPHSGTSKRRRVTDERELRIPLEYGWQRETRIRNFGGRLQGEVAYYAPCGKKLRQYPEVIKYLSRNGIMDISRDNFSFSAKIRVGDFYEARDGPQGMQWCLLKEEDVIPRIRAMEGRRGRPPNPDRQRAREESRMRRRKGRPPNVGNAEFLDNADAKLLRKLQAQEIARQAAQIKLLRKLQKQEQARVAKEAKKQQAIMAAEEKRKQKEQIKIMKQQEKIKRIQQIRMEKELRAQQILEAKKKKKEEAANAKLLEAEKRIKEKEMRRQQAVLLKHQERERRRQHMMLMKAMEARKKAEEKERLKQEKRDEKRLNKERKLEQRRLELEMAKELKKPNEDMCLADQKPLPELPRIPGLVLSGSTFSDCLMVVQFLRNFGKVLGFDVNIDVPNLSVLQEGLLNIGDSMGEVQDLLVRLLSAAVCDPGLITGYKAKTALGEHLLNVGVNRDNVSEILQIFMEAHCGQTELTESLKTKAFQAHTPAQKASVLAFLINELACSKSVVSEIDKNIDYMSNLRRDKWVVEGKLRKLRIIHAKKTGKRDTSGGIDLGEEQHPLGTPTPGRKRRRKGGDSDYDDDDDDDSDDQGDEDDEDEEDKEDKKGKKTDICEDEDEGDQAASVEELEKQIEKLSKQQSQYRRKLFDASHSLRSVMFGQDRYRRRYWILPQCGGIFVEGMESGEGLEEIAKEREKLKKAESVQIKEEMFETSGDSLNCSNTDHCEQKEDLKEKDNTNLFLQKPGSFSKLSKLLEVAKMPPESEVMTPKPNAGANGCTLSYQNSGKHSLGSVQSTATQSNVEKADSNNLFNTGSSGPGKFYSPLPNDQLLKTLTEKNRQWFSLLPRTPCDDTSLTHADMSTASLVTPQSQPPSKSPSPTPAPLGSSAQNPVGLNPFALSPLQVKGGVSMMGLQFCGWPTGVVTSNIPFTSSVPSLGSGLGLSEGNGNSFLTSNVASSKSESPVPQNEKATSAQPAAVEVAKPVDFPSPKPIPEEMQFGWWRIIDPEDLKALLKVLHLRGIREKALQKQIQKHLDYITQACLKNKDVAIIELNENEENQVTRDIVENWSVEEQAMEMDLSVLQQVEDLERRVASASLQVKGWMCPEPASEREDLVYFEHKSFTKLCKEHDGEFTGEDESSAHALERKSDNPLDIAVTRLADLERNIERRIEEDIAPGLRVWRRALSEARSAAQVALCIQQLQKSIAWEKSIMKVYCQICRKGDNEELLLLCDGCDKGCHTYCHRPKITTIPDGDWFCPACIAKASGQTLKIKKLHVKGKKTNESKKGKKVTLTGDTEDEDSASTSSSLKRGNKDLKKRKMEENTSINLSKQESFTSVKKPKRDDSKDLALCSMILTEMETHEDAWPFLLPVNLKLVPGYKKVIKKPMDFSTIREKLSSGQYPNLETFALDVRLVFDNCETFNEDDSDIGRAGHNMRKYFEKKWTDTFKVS
# Assay: qHTS Assay for Inhibitors of BAZ2B; note: nearly all actives have a fitted effect of over 60% in size
# Settings: AlphaScreen BAZ2B-H3K14Ac peptide displacement; activity change, negative = inhibition: at 114 µM (top of the series) unless noted
# Summary of the method: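 Complex of BAZ2B and biotin-H3K14Ac (50 nM apiece) forms over 30 min at RT, then faces library compounds up to 110 uM for another 30 min; AlphaScreen beads added, 20 min dark incubation, luminescence read.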
# % is set by controls: 0 for no effect and ±100 for the full control effect; potency is the fitted concentration of half-maximal effect; tags give direction and shape of the fitted curve.
SMILES,"activity change, negative = inhibition",Potency
CC1=C(C(=O)OCc2ccccc2)C(c2cccs2)NC(=O)N1CCCC(=O)O (configuration not stated),inactive: 1.39%,–
COc1cc(NC2=Nc3cccc4cccc2c34)cc(OC)c1OC,–,active: 50.1 µM
CC(=Nc1ccccc1)c1sc2ccccc2c1O,–,"inconclusive: 79.4 µM [inhibitor, single point]"
CCOC(=O)c1cc(C)n(CC2CCC(C(=O)Nc3ccc(C)cc3)CC2)c1C (configuration not stated),inactive: -24.6%,–
CCc1ccc(-c2cc(C)no2)cc1S(=O)(=O)N1CCN(c2ccc(F)cc2)CC1,–,"inconclusive: 79.4 µM [inhibitor, single point]"
CC(C)(C)C1CCC(=O)N(CCC#N)CC1 (configuration not stated),inactive: 2.36%,–
COCCCn1c(SCC(=O)Nc2ccccc2)nnc1-c1ccncc1,inactive: 2.13%,–
O=C1CN(C(=O)c2ccc(Br)o2)C(c2ccccc2)c2cc(Cl)ccc2N1 (configuration not stated),–,"inconclusive: 70.8 µM [inhibitor, single point]"
O=C(COC(=O)c1ccccc1C(=O)OCC(=O)NCCc1c[nH]c2ccccc12)NCCc1c[nH]c2ccccc12,–,"inconclusive: 44.7 µM [inhibitor, partial curve]"
CN(c1ccccc1)S(=O)(=O)c1ccc(Cl)c(C(=O)Nc2ccc(N3CCOCC3)cc2)c1,–,"inconclusive: 17.8 µM [inhibitor, full curve, poor fit]"
O=C(/C=C/c1cn(CC(O)CN2CCCCCC2)c2ccccc12)c1cccs1 (configuration not stated),inactive: -34%,–
Cc1cc(C(=O)CSc2nc3ccccc3[nH]2)c(C)n1C,–,"inconclusive: 89.1 µM [inhibitor, single point]"
COc1ccc(NC(=O)/C=C/c2c(Cl)nc3ccccn23)cc1,–,"inconclusive: 28.2 µM [inhibitor, full curve]"
CC(C)(NO)/C(=N\O)c1ccc(Cl)cc1,–,active: 56.2 µM
O=C(C1CCN(c2nnc(N3CCCC3=O)s2)CC1)N1CCN(c2cccc(C(F)(F)F)c2)CC1,–,"inconclusive: 89.1 µM [inhibitor, single point]"
COc1ccc(C2=NN(C(=O)CCC(=O)O)C(c3ccccc3OC)C2)cc1 (configuration not stated),inactive: -12%,–
Fc1ccccc1COc1ccccc1CNCc1ccncc1,–,"inconclusive: 89.1 µM [inhibitor, single point]"
O=C(O)CNC(=O)C(CS)Cc1ccccc1 (configuration not stated),inactive: 7.16%,–
COc1cccc(CNC(=O)CCCn2nc(C)c3sc4ccccc4c3c2=O)c1,inactive: 1.25%,–
CCOC(=O)c1c(C)oc2nc(C)nc(N3CCN(c4cc(Cl)ccc4C)CC3)c12,–,"inconclusive: 35.5 µM [inhibitor, single point]"
COCCCN1C(=O)C(=O)/C(=C(/O)c2ccc(OC(C)C)c(C)c2)C1c1ccncc1 (configuration not stated),–,"inconclusive: 89.1 µM [inhibitor, single point]"
COc1ccc(S(=O)(=O)N(CC(=O)NCc2ccncc2)c2ccc(C)cc2)cc1OC,inactive: 1.23%,–
CC1Cc2cc(/C(O)=C3/C(=O)C(=O)N(CCCn4ccnc4)C3c3ccco3)ccc2O1 (configuration not stated),–,"inconclusive: 79.4 µM [inhibitor, single point]"
[O-]/[N+](=C\c1ccncc1)c1ccc(Br)cc1,–,"inconclusive: 35.5 µM [inhibitor, partial curve]"

SMILES,"activity change, negative = inhibition",Potency
CCN1C(=O)C(=O)N(CC(=O)N2CCN(c3ccccc3)CC2)C1=O,inactive: 2.49%,–
Oc1c(Cl)cc(Cl)cc1/C=N/c1nccs1,inactive: -1.5%,–
C(=N\Nc1nc2ccccc2[nH]1)/c1cccc2cccnc12,–,active: 7.08 µM
COCCNc1nc(-c2ccc(OC)cc2)c(-c2ccc(OC)cc2)s1,–,active: 70.8 µM
Cc1ccc(/C=N/Nc2ccc(F)cc2F)s1,–,"inconclusive: 39.8 µM [inhibitor, partial curve]"
O=C(O)c1ccc(N/N=C/c2ccc(-c3cccc(Cl)c3)o2)cc1,–,"inconclusive: 79.4 µM [inhibitor, partial curve]"
Oc1ccc(N=Nc2ccc3c(c2)OCO3)c2ccccc12,–,"inconclusive: 4.47 µM [inhibitor, partial curve]"
Cc1ccc(NC(=O)c2oc3ccc(S(=O)(=O)N4CCCCCC4)cc3c2C)c(C)c1,inactive: 8.6%,–
c1ccc(CNc2nc(-c3cccnc3)cs2)cc1,–,"inconclusive: 50.1 µM [inhibitor, partial curve]"
CCn1c(=O)c2cc(C(=O)NC3CCC(C)CC3)sc2c2ccccc21 (configuration not stated),inactive: -19.4%,–
COc1cccc(-c2nc(SCC(=O)Nc3nc(-c4ccccc4)c(C)s3)[nH]c(=O)c2C#N)c1,–,"inconclusive: 56.2 µM [inhibitor, partial curve]"
O=C(COC(=O)/C=C/c1cccs1)Nc1nc(-c2ccccc2)cs1,inactive: 5.02%,–
CC1=CC(C)(C)NC(=S)N1C(C)c1ccccc1 (configuration not stated),–,"inconclusive: 79.4 µM [inhibitor, single point]"
O=C(Nc1ccc(S(=O)(=O)Nc2nccs2)cc1)c1cccc(S(=O)(=O)N2CCOCC2)c1,–,"inconclusive: 79.4 µM [inhibitor, single point]"
CN1CCN(C(=S)c2ccc(-c3cc(Cl)ccc3Cl)o2)CC1,–,active: 28.2 µM
CCOc1ccc(CN2CCN(Cc3cnc(-c4ccccc4)s3)CC2CCO)cc1 (configuration not stated),–,"inconclusive: 100 µM [inhibitor, single point]"
Cc1ccc(C2=NN(C(=O)CSc3nccn3C)C(c3ccco3)C2)cc1 (configuration not stated),–,"inconclusive: 44.7 µM [inhibitor, partial curve]"
Cc1ccc(NC(=O)c2ccccc2-c2ccccc2C(=O)O)cc1C,–,"inconclusive: 89.1 µM [inhibitor, single point]"
CC(C)C(=O)N1CCN(c2c(Cl)cccc2[N+](=O)[O-])CC1,–,"inconclusive: 100 µM [inhibitor, single point]"
CC(C)(C)c1ccc(C(=O)NNC(=O)C2CCCCC2)cc1,–,"inconclusive: 89.1 µM [inhibitor, single point]"
Nc1n[nH]c(C2CC2)c1N=Nc1ccc(Cl)cc1,–,"inconclusive: 50.1 µM [inhibitor, partial curve]"
Cc1cc(/C=C\c2nc(O)c([N+](=O)[O-])c(=O)[nH]2)c(C)n1-c1ccccc1,–,active: 44.7 µM
CCC(=C(c1ccc(OC)cc1)c1ccc(OC)cc1)c1cn(CC(O)CN2CCN(C)CC2)c2ccccc12 (configuration not stated),–,active: 44.7 µM
C/C(=N\NC(=O)C1=NNC(=O)C1C)c1cccs1 (configuration not stated),–,"inconclusive: 79.4 µM [inhibitor, single point]"

SMILES,"activity change, negative = inhibition",Potency
CC1(C)CC(=O)C(C(=O)CCCCC(=O)C2C(=O)CC(C)(C)CC2=O)C(=O)C1,–,"inconclusive: 89.1 µM [inhibitor, single point]"
CCCCn1c(SCC(=O)c2ccc3c(c2)NC(=O)CO3)nc2cc(S(N)(=O)=O)ccc21,–,"inconclusive: 50.1 µM [inhibitor, partial curve]"
C=CCOc1ccc(C(=O)N(Cc2ccc(N(C)C)cc2)C2CCS(=O)(=O)C2)cc1 (configuration not stated),–,"inconclusive: 44.7 µM [inhibitor, partial curve]"
CSc1ccccc1NC(=O)Cn1nc([N+](=O)[O-])cc1C,inactive: -1.87%,–
CCCOc1ccc([N+](=O)[O-])cc1C1NC(=S)NC(c2ccccc2)=C1C(=O)OCC (configuration not stated),–,"inconclusive: 70.8 µM [inhibitor, single point]"
Cc1cccc(N/N=C(\C#N)S(=O)(=O)C(C)(C)C)c1,–,"inconclusive: 79.4 µM [inhibitor, single point]"
COc1ccc(C(=O)Nc2ccc(NC(=O)C3CC3)cn2)cc1,–,"inconclusive: 79.4 µM [inhibitor, single point]"
CC1CCCN(S(=O)(=O)c2ccc(C(=O)Nc3nnc(-c4ccccn4)o3)cc2)C1 (configuration not stated),–,"inconclusive: 89.1 µM [inhibitor, single point]"
CSCC[C@H](NC(=O)OC(C)(C)C)C(=O)N/N=C/c1cccc2cccnc12,–,"inconclusive: 79.4 µM [inhibitor, partial curve]"
Cc1cccc2sc(N(CCCN(C)C)C(=O)c3nc4ccccc4s3)nc12,inactive: -5.88%,–
O=C(Cc1ccccc1)N(Cc1cccnc1)c1nc2c(Cl)cccc2s1,–,"inconclusive: 89.1 µM [inhibitor, single point]"
O=C(CN1CCN(c2ccccn2)CC1)Nc1cccc(F)c1,inactive: 3.51%,–
O=C(O)/C=C/c1cn(-c2ccccc2)nc1-c1cc2ccccc2oc1=O,inactive: 0.827%,–
Cc1sc2ncnc(SCC(=O)Nc3ncccc3O)c2c1C,–,active: 39.8 µM
CC1CN(C2=NC(=O)/C(=C3/C(=O)N(Cc4ccc(F)cc4)c4ccccc43)S2)CC(C)O1 (configuration not stated),–,"inconclusive: 5.62 µM [inhibitor, full curve, poor fit]"
Cc1nnc2n1N=C(c1ccccc1)CS2,–,"inconclusive: 50.1 µM [inhibitor, partial curve]"
Cc1ccc(S(=O)(=O)Nc2ccc(S(=O)(=O)Nc3nccs3)cc2)c([N+](=O)[O-])c1,–,"inconclusive: 79.4 µM [inhibitor, single point]"
O=C(NCC(c1ccco1)N1CCc2ccccc21)c1c(F)cccc1F (configuration not stated),–,"inconclusive: 89.1 µM [inhibitor, single point]"
O=C(c1ccc(Cl)cc1)N1CCC(c2nc3ccccc3o2)CC1,inactive: -36.4%,–
Cc1cccc(N2C(=O)CCC2=O)c1,inactive: -2.49%,–
Cc1ccnc(OC(C(=O)O)C(OCc2ccccc2)(c2ccccc2)c2ccc(C(F)(F)F)cc2)n1 (configuration not stated),–,"inconclusive: 89.1 µM [inhibitor, single point]"
Cn1c(=O)[nH]c(=O)c2c1nc(NC1CCCC1)n2Cc1ccccc1,inactive: -32.8%,–
N#Cc1ccc(C(=O)Nc2nnc(-c3ccco3)o2)cc1,–,active: 17.8 µM
COc1ccc(CN(CC(=O)NC(C)C)C(=O)CCC(=O)Nc2nccs2)cc1,inactive: -18%,–

# Source: PubChem BioAssay AID504333 (National Center for Advancing Translational Sciences (NCATS), 2011)
